Test results published in patent US11000038B2, “Pyridone compounds and agricultural and horticultural fungicides containing the same as active ingredients” (priority 2017, dated 2021).

Legend:
[1] = test system: cabbage Alternaria sooty spot fungi (Alternaia brassicicola); experiment: Test Example C: cabbage Alternaria sooty spot, spray treatment of cabbage plants; format: in vivo; conditions: cabbage Alternaria sooty spot
Source text: [Test Example C] Cabbage Alternaria Sooty Spot
Test plants (cabbage variety: Shikidori) were cultivated until the cotyledons extended after the sowing of seeds.
<Control Value> Control value=100{1−(n/3)}

[2] = test system: barley powdery mildew fungi (Blumeria graminis f. sp. hordei); experiment: Test Example D: barley powdery mildew, spray treatment of barley plants; conditions: barley powdery mildew
[3] = test system: gray mold fungi (Botrytis cinerea); experiment: Test Example B: tomato gray mold, spray treatment of tomato plants; conditions: tomato gray mold
[4] = test system: grape downy mildew fungus (Plasmopara viticola); experiment: Test Example G: grape downy mildew, spray treatment of grape plants; conditions: grape downy mildew, 7 to 10 days after inoculation
[5] = test system: wheat brown rust fungi (Puccinia recondita); experiment: Test Example E: wheat brown rust, spray treatment of wheat plants; format: in vivo; conditions: wheat brown rust
[6] = spray treatment of cabbage plants
[7] = spray treatment of barley plants
[8] = spray treatment of tomato plants
[9] = spray treatment of wheat plants

| SMILES | Test C control value [1, 6] | Test D control value [2, 7] | Test B control value [3, 8] | Test G control value ([4]; 250 ppm spray (2.5 ml/pot)) | Test E control value [5, 9] | Test E control value ([5]; spray treatment) | Test D control value ([2]; spray treatment) | Test B control value ([3]; spray treatment) | Test G control value ([4]; 250 ppm spray) | Test C control value ([1]; spray treatment) |
| --- | --- | --- | --- | --- | --- | --- | --- | --- | --- | --- |
| COc1cc(F)c(-c2c(C)c(=O)c(Br)cn2-c2ccccc2C)c(F)c1 [Compound 266] | H (H shows the control value of more than 50%) | H (H shows the control value of more than 50%) | H (H shows the control value of more than 50%) | H (H shows the control value of more than 50%) |  |  |  |  |  |  |
| Cc1cc(F)ccc1-n1cc(Br)c(=O)c(Br)c1-c1c(F)cc(F)cc1F [Compound 273] | H (H shows the control value of more than 50%) | H (H shows the control value of more than 50%) | H (H shows the control value of more than 50%) | L (L shows the control value of 50% or less) |  |  |  |  |  |  |
| COCCOc1ccc(C)c(-n2cc(Cl)c(=O)c(Cl)c2-c2c(F)cc(F)cc2F)c1 [Compound 295] | H (H shows the control value of more than 50%) | H (H shows the control value of more than 50%) | H (H shows the control value of more than 50%) | L (L shows the control value of 50% or less) |  |  |  |  |  |  |
| Cc1c(N(C)C)cccc1-n1cc(Br)c(=O)c(Cl)c1-c1c(F)cc(F)cc1F [Compound 335] | H (H shows the control value of more than 50%) | L (L shows the control value of 50% or less) | H (H shows the control value of more than 50%) | H (H shows the control value of more than 50%) |  |  |  |  |  |  |
| Cc1ccccc1-n1cc(Br)c(=O)c(C)c1-c1ccccc1 [Compound 357] |  | L (L shows the control value of 50% or less) | H (H shows the control value of more than 50%) | H (H shows the control value of more than 50%) | H (H shows the control value of more than 50%) |  |  |  |  |  |
| Cc1cn(-c2ccccc2)c(-c2c(F)cccc2F)c(C)c1=O [Compound 360] |  | L (L shows the control value of 50% or less) | H (H shows the control value of more than 50%) | H (H shows the control value of more than 50%) | H (H shows the control value of more than 50%) |  |  |  |  |  |
| CCCc1c(-c2c(F)cc(F)cc2F)n(-c2ccccc2C)cc(Br)c1=O [Compound 376] |  |  |  |  |  | L (L shows the control value of 50% or less) | H (H shows the control value of more than 50%) | H (H shows the control value of more than 50%) | L (L shows the control value of 50% or less) |  |
| COc1ccc(C)c(-n2cc(C)c(=O)c(C)c2-c2c(F)cccc2F)c1 [Compound 383] |  |  |  |  |  | H (H shows the control value of more than 50%) | L (L shows the control value of 50% or less) | H (H shows the control value of more than 50%) | L (L shows the control value of 50% or less) |  |
| C=CCOc1cc(F)c(-c2c(C)c(=O)c(C)cn2-c2cc(C)ccc2C)c(F)c1 [Compound 405] |  |  |  |  |  |  | H (H shows the control value of more than 50%) | H (H shows the control value of more than 50%) | L (L shows the control value of 50% or less) | H (H shows the control value of more than 50%) |
| COc1cc(-n2cc(Br)c(=O)c(Cl)c2-c2ccccc2)c(C)cc1Br [Compound 414] |  |  |  |  |  | L (L shows the control value of 50% or less) | L (L shows the control value of 50% or less) | L (L shows the control value of 50% or less) | L (L shows the control value of 50% or less) |  |
| Cc1c(-n2cc(C)c(=O)c(C)c2-c2c(F)cc(F)cc2F)ccc(Br)c1[N+](=O)[O-] [Compound 425] |  |  |  |  |  |  | L (L shows the control value of 50% or less) | L (L shows the control value of 50% or less) | H (H shows the control value of more than 50%) | L (L shows the control value of 50% or less) |
| COCOc1ccc(C)c(-n2cc(Br)c(=O)c(Cl)c2-c2c(F)cccc2F)c1 [Compound 427] |  |  |  |  |  | H (H shows the control value of more than 50%) | H (H shows the control value of more than 50%) | H (H shows the control value of more than 50%) | H (H shows the control value of more than 50%) |  |
| Cc1ccc(OCC#N)cc1-n1cc(Br)c(=O)c(Cl)c1-c1c(F)cccc1F [Compound 428] |  |  |  |  |  | H (H shows the control value of more than 50%) | H (H shows the control value of more than 50%) | H (H shows the control value of more than 50%) | H (H shows the control value of more than 50%) |  |
| C#CCOc1ccc(C)c(-n2cc(Br)c(=O)c(Cl)c2-c2c(F)cccc2F)c1 [Compound 429] |  |  |  |  |  |  | L (L shows the control value of 50% or less) | H (H shows the control value of more than 50%) | H (H shows the control value of more than 50%) | H (H shows the control value of more than 50%) |
| COCCOc1ccc(C)c(-n2cc(Br)c(=O)c(Cl)c2-c2c(F)cccc2F)c1 [Compound 431] |  |  |  |  |  |  | L (L shows the control value of 50% or less) | H (H shows the control value of more than 50%) | L (L shows the control value of 50% or less) | L (L shows the control value of 50% or less) |
| Cc1cn(-c2ccccc2)c(-c2ccccc2F)c(C)c1=O [Compound 471] |  |  |  |  |  | H (H shows the control value of more than 50%) | H (H shows the control value of more than 50%) | H (H shows the control value of more than 50%) | L (L shows the control value of 50% or less) |  |
| CCc1ccccc1-n1cc(Br)c(=O)c(CC)c1-c1c(F)cccc1F [Compound 509] |  |  |  |  |  | H (H shows the control value of more than 50%) | H (H shows the control value of more than 50%) | H (H shows the control value of more than 50%) | L (L shows the control value of 50% or less) |  |
| COc1cccc(-n2cc(C)c(=O)c(C)c2-c2c(F)cccc2F)c1C [Compound 523] |  |  |  |  |  | H (H shows the control value of more than 50%) | H (H shows the control value of more than 50%) | H (H shows the control value of more than 50%) | H (H shows the control value of more than 50%) |  |
| CCc1c(-c2ccccc2)n(-c2cc(OC)ccc2C)cc(C)c1=O [Compound 543] |  |  |  |  |  | H (H shows the control value of more than 50%) | H (H shows the control value of more than 50%) | H (H shows the control value of more than 50%) | L (L shows the control value of 50% or less) |  |
| COc1cccc(-n2cc(C)c(=O)c(C)c2-c2ccccc2)c1C [Compound 546] |  |  |  |  |  | H (H shows the control value of more than 50%) | H (H shows the control value of more than 50%) | H (H shows the control value of more than 50%) | L (L shows the control value of 50% or less) |  |
| Cc1c(Br)cccc1-n1cc(C)c(=O)c(C)c1-c1ccccc1 [Compound 565] |  |  |  |  |  | H (H shows the control value of more than 50%) | L (L shows the control value of 50% or less) | H (H shows the control value of more than 50%) | H (H shows the control value of more than 50%) |  |
| O=c1c(Br)cn(-c2ccccc2)c(-c2ccccc2Br)c1Cl [Compound 576] |  |  |  |  |  | H (H shows the control value of more than 50%) | L (L shows the control value of 50% or less) | H (H shows the control value of more than 50%) | L (L shows the control value of 50% or less) |  |
| COc1cccc(F)c1-c1c(C)c(=O)c(C)cn1-c1ccccc1 [Compound 591] |  |  |  |  |  | L (L shows the control value of 50% or less) | L (L shows the control value of 50% or less) | L (L shows the control value of 50% or less) | H (H shows the control value of more than 50%) |  |
| O=c1c(Br)cn(-c2ccccc2)c(-c2ccccc2C(F)(F)F)c1Cl [Compound 600] |  |  |  |  |  | L (L shows the control value of 50% or less) | L (L shows the control value of 50% or less) | L (L shows the control value of 50% or less) | L (L shows the control value of 50% or less) |  |
| Cc1cn(-c2ccccc2)c(-c2cc(F)ccc2F)c(C)c1=O [Compound 614] |  |  |  |  |  | H (H shows the control value of more than 50%) | H (H shows the control value of more than 50%) | H (H shows the control value of more than 50%) | L (L shows the control value of 50% or less) |  |
| Cc1cn(-c2ccccc2)c(-c2cc(Cl)cc(Cl)c2)c(C)c1=O [Compound 624] |  |  |  |  |  | L (L shows the control value of 50% or less) | L (L shows the control value of 50% or less) | H (H shows the control value of more than 50%) | L (L shows the control value of 50% or less) |  |
